Assay results as given in PubChem BioAssay AID504832 (National Center for Advancing Translational Sciences (NCATS), 2011).
The campaign covered roughly 310,000 compounds. About 18,000 (5.8%) were called active. The shares of active, inactive and inconclusive entries below differ from those in the screen. The call rests on the fitted dose curve; in most records, active means well fitted inhibition curve with a large enough effect; inconclusive means small, poorly fitted or top-dose-only effect, or another doubt; inactive means no such curve, though single readings can be large or run the other way. No potency is given beside an inconclusive call; the fits are too rough.

Test: Primary qHTS for delayed death inhibitors of the malarial parasite plastid, 48 hour incubation
Conditions: P. falciparum luciferase growth in erythrocytes; series mostly up to 28.7 µM; activity change, negative = inhibition: at the top concentration
Procedure, shortened: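 In quantitative HTS format, infected erythrocytes bearing luciferase-reporter parasites were treated for a single generation at 37 C. Luminescence after adding detection reagent served as the growth measure.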
On the % scale 0 is the no-effect control and ±100 the full control effect; potency means the concentration at half of the fitted maximal effect; tags describe the fitted curve by direction and shape.

Row | SMILES | activity change, negative = inhibition | Potency
1 | CCOC(=O)c1c(C)[nH]c(C=Nc2ccccc2)c1O | inactive: -1.23% | 
2 | COc1ccc(OC)c(NC(=O)COc2coc(CN3CCCc4ccccc43)cc2=O)c1 |  | active: 10.4 µM
3 | Cc1ccc(CNC(=O)c2ccc(N3CCC4(CC3)CC(c3ccccc3)=NO4)c(NC(=O)c3ccccc3)c2)cc1 |  | active: 4.65 µM
4 | CC(C)c1c(CN(C)[C@@H](C)Cc2ccccc2)n(C)n(-c2ccccc2)c1=O |  | inconclusive [inhibitor, single point]
5 | O=C(Nc1cc(-c2ccccc2)nn1-c1ccccc1F)c1ccc([N+](=O)[O-])cc1 |  | inconclusive [inhibitor, single point]
6 | N=c1c(C(=O)NC2CCCC2)cc2c(=O)n3ccccc3nc2n1C1CCCCC1 |  | inconclusive [inhibitor, single point]
7 | COc1ccc(C(C#N)N2N=C(c3ccccc3)CC2c2ccccc2)cc1OC (stereo not given) | inactive: 35% | 
8 | CC(C)CC1CCCCC1OC(=O)C[N+]1(C)CCCCC1 (stereo not given) |  | inconclusive [inhibitor, full curve, poor fit]
9 | O=C(CSc1ncccn1)n1c2c(c3ccccc31)CCCC2 | inactive: 39.3% | 
10 | CCn1cc(C(=O)N2CCN(c3ccc(OC)cc3)CC2)c2cc(OC)c(OC)cc2c1=O |  | inconclusive [inhibitor, single point]
11 | O=C(COC(=O)C12CC3CC(CC(O)(C3)C1)C2)N1CCN(S(=O)(=O)c2ccc(Cl)cc2)CC1 |  | inconclusive [inhibitor, single point]
12 | CCCc1cc2c(cc1NC(=O)c1ccc(C(C)(C)C)cc1)OCO2 |  | inconclusive [inhibitor, single point]
13 | CN(C)CC1CCCCC1C1(O)c2ccccc2CSc2sccc21 (stereo not given) |  | active: 9.28 µM
14 | Cc1cccc(N2C(=O)CC(SC(N)=Nc3ccccc3)C2=O)c1 (stereo not given) |  | inconclusive [inhibitor, single point]
15 | Cc1cc(C(=O)N/N=C/c2ccccc2)c(C)o1 | inactive: 85.7% | 
16 | CCOc1ccc2oc(C(=O)N3CC(C)OC(C)C3)c(C)c2c1 (stereo not given) |  | inconclusive [inhibitor, single point]
17 | FC(F)(F)c1ccc2c(c1)N1CCCC1CN2 (stereo not given) |  | inconclusive [inhibitor, partial curve, poor fit]
18 | COc1ccc(C2CC(c3cccs3)=NN2C(=O)CSc2nc3c(cnn3-c3ccccc3)c(=O)[nH]2)cc1 (stereo not given) |  | inconclusive [inhibitor, single point]
19 | CC1Cc2nc(SCC(N)=O)n(Cc3ccccc3)c(=O)c2S1 (stereo not given) |  | inconclusive [inhibitor, single point]
20 | O=C(CCCn1c(=S)[nH]c2cc3c(cc2c1=O)OCO3)N1CCN(c2ccccn2)CC1 |  | inconclusive [inhibitor, partial curve, poor fit]
21 | COc1ccc(C(CCN2CCN(c3ccccc3)CC2)c2c(O)cc(OC)cc2OC)cc1 (stereo not given) |  | active: 1.04 µM
22 | CN1CCN(C(=O)C2CCCN(c3ncnc4c3nc3n4CCCCC3)C2)CC1 (stereo not given) |  | inconclusive [inhibitor, partial curve, poor fit]
23 | Cc1ccc(C2CC(c3ccc(Cl)cc3)n3nc(N)nc3N2)cc1 (stereo not given) | inactive: 3.41% | 
24 | O=C(c1cc(-c2ccccn2)nc2ccc(Br)cc12)N1CCN(S(=O)(=O)c2ccccc2)CC1 |  | inconclusive [inhibitor, partial curve, poor fit]

Row | SMILES | activity change, negative = inhibition | Potency
25 | CCOc1cc(Cl)c(NC(=O)c2ccco2)cc1OCC | inactive: -1.01% | 
26 | O=C(NCC1COc2ccccc2O1)c1cccc(S(=O)(=O)N2CCN(c3ccccc3)CC2)c1 (stereo not given) |  | inconclusive [inhibitor, single point]
27 | N#Cc1ccc(NC(=O)N2CCC(c3nc4c(nnn4Cc4cccc(Cl)c4)c(=O)[nH]3)CC2)cc1 |  | inconclusive [inhibitor, partial curve]
28 | CC/C(=C/c1sc2ccccc2[n+]1CC)SC |  | inconclusive [inhibitor, single point]
29 | CC(C)n1nccc1N(Cc1ccc(Br)cc1)S(=O)(=O)c1ccccc1 |  | active: 13.1 µM
30 | OCCC1CN(Cc2cccn2-c2cccnc2)CCN1CCc1ccccc1 (stereo not given) | inactive: -5.81% | 
31 | CN1CCN(c2ccc(S(=O)(=O)N3CCCCC3)cc2NC(=O)/C=C/c2ccc(Cl)c([N+](=O)[O-])c2)CC1 |  | active: 2.94 µM
32 | COc1ccc(CN(C)Cc2c(O)ccc3cc(Br)ccc23)cc1OC |  | inconclusive [inhibitor, single point]
33 | COc1cc(/C=N/NC(=O)c2cnn3c(C)cc(-c4ccccc4)nc23)ccc1O |  | inconclusive [inhibitor, partial curve, poor fit]
34 | NC(=O)C1CCN(CC(=O)Nc2cccc(C(=O)Nc3cccc(C(F)(F)F)c3)c2)CC1 |  | active: 1.17 µM
35 | Cc1ccc(S(=O)(=O)Nc2cccc3cccnc23)c([N+](=O)[O-])c1 |  | active: 2.62 µM
36 | COc1cccc(-c2ncc3ccccc3c2COC(=O)c2ccc(C(F)(F)F)cc2)c1 |  | inconclusive [inhibitor, single point]
37 | c1ccc(-c2[nH]ncc2CN2CCN(Cc3ccc4c(c3)OCO4)CC2)cc1 | inactive: 28% | 
38 | COc1ccc(C(CC(=O)N2CCCC2)c2c(OC)cc(OC)c3c(-c4ccccc4)cc(=O)oc23)cc1 (stereo not given) |  | active: 9.28 µM
39 | Cc1nc2ccccc2c2c1CC(C)S2 (stereo not given) |  | inconclusive [inhibitor, single point]
40 | O=c1[nH]c(-c2cccnc2)nc2sc(-c3ccccc3)cc12 | inactive: 99.3% | 
41 | COc1ccc(C(=O)c2c3ccccc3[n+]([O-])n2CCC(N)=O)cc1 |  | inconclusive [inhibitor, single point]
42 | Cc1ccc(C)c(NC(=O)c2cc(-c3ccccc3)nn2-c2ccccc2)c1 |  | inconclusive [inhibitor, single point]
43 | CCOC(=O)C1C(=O)C=C(c2cccc(NS(C)(=O)=O)c2)CC1c1ccco1 (stereo not given) |  | inconclusive [inhibitor, single point]
44 | Cc1ccc(C)n1-c1ccc(C(=O)Nc2ccccc2)cc1 |  | inconclusive [inhibitor, single point]
45 | COc1cc(C(=O)NC(=S)Nc2ccc(Cc3ccncc3)cc2)cc(OC)c1OC |  | active: 10.4 µM
46 | O=C(C1CC1)N(Cc1nc2ccccc2c(=O)[nH]1)Cc1cccs1 |  | active: 1.85 µM
47 | CNC(=O)Oc1ccc(N(C)C)cc1C(C)C |  | inconclusive [inhibitor, single point]
48 | Cc1nc(NC(=O)CN2CCOCC2)sc1C(=O)N(C)C | inactive: 1.64% | 

Row | SMILES | activity change, negative = inhibition | Potency
49 | Cc1ccsc1CNC1CCCCC1 |  | inconclusive [inhibitor, single point]
50 | Cc1cc(C)c(C(=O)COC(=O)c2cc([N+](=O)[O-])ccc2N2CCOCC2)cc1C |  | active: 10.4 µM
51 | CCOc1ccc(C2C(C#N)=C(N)N(N(C)C)C3=C2C(=O)CC(C)(C)C3)cc1 (stereo not given) |  | inconclusive [inhibitor, single point]
52 | COc1ccc(CCNC(=O)CSc2nnc(Cc3cccn3C)n2C)cc1OC | inactive: -0.639% | 
53 | CN(C)C(=O)c1nnsc1Sc1ccc(Cl)cc1 | inactive: 0% | 
54 | COc1ccc(/C(O)=C2/C(=O)C(=O)N(c3ccccn3)C2c2ccc(C(C)C)cc2)cc1 (stereo not given) | inactive: 32.1% | 
55 | O=C(CSc1nnc(-c2ccc(Cl)s2)o1)N1CCCc2ccccc21 | inactive: -22.8% | 
56 | COc1cc(C(=O)N/N=C/c2ccc(OC(=O)c3ccccc3Cl)c(OC)c2)ccc1O | inactive: -2.1% | 
57 | N#CCC1c2ccccc2CCN1C(=O)Nc1ccc(Cl)cc1 (stereo not given) |  | inconclusive [inhibitor, single point]
58 | CCOc1ccc(Nc2oc(-c3cccs3)nc2C#N)cc1 |  | inconclusive [inhibitor, single point]
59 | O=C1C=C(O)C(n2cncn2)C(c2ccc3c(c2)OCO3)C1 (stereo not given) |  | inconclusive [inhibitor, partial curve, poor fit]
60 | Cc1ccc2c(c1)cc(CN(C(=O)N1CCOCC1)C1CCCC1)c1nnnn12 |  | inconclusive [inhibitor, single point]
61 | CCOc1cc(OCC)nc(S(C)(=O)=O)n1 |  | inconclusive [inhibitor, partial curve, poor fit]
62 | CC(C)Nc1nc(NC(C)C)nc(SCC(N)=O)n1 | inactive: 3% | 
63 | c1ccc2c(c1)Sc1ccccc1N2CC1CN2CCC1CC2 (stereo not given) |  | active: 11.7 µM
64 | COc1cccc(NC(=O)CCc2nc(-c3cccs3)no2)c1 |  | inconclusive [inhibitor, single point]
65 | CC(C)(C)c1cc(-c2csc(Nc3ccccc3)[n+]2Cc2ccc(C(=O)O)cc2)cc(C(C)(C)C)c1O |  | inconclusive [inhibitor, single point]
66 | CCN1CCN(C(=O)CS(=O)(=O)Cc2nc(-c3ccccc3C)oc2C)CC1 | inactive: 48.5% | 
67 | Cc1ccc(OP(=O)(Nc2cccc(C)c2)Oc2ccc(C)cc2)cc1 |  | inconclusive [inhibitor, single point]
68 | CCc1ccc(NC(=O)c2[nH]c(C)c(C(C)=O)c2C)cc1 | inactive: -12.5% | 
69 | Cc1ccc(S(=O)(=O)N(CC(=O)NCc2ccccn2)c2ccc(Cl)cc2)cc1 |  | inconclusive [inhibitor, single point]
70 | O=S(=O)(c1ccccc1)N1CCN(c2nc(-c3cccnc3)nc3ccccc23)CC1 |  | inconclusive [inhibitor, partial curve, poor fit]
